Source: the supplement of paper PMC8728848
The list shows a part of the results.

Assays:
Experiment in all cases: glycan array binding signal (z-score within array); higher = stronger binding
Conditions in all cases: glycan notation: IUPAC condensed, linker removed
[1] = target: GlcNAc(b1-3)Gal(b1-4)GlcNAc(b1-3)Gal(b1-4)GlcNAc(b1-2)Man(a1-3)[GlcNAc(b1-3)Gal(b1-4)GlcNAc(b1-3)Gal(b1-4)GlcNAc(b1-2)Man(a1-6)]Man(b1-4)GlcNAc(b1-4)[Fuc(a1-6)]GlcNAc
Method in brief: (§1)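 From the Consortium for Functional Glycomics database, 3228 arrays were curated, keeping only those whose protein sequence was available. Binding is given as a within-array Z-score averaged across arrays sharing a protein sequence and across linkers. Negative Z-scores can be read as non-binding.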

[2] = target: GlcNAc(b1-3)Gal(b1-4)GlcNAc(b1-3)Gal(b1-4)GlcNAc(b1-2)[GlcNAc(b1-3)Gal(b1-4)GlcNAc(b1-3)Gal(b1-4)GlcNAc(b1-6)]Man(a1-6)[GlcNAc(b1-3)Gal(b1-4)GlcNAc(b1-3)Gal(b1-4)GlcNAc(b1-2)Man(a1-3)]Man(b1-4)GlcNAc(b1-4)[Fuc(a1-6)]GlcNAc
Method in brief: as §1

[3] = target: GlcNAc(b1-3)Gal(b1-4)GlcNAc(b1-3)Gal(b1-4)GlcNAc(b1-3)Gal(b1-4)GlcNAc(b1-2)Man(a1-3)[GlcNAc(b1-3)Gal(b1-4)GlcNAc(b1-3)Gal(b1-4)GlcNAc(b1-3)Gal(b1-4)GlcNAc(b1-2)Man(a1-6)]Man(b1-4)GlcNAc(b1-4)GlcNAc
Method in brief: as §1

[4] = target: GlcNAc(b1-3)Gal(b1-4)GlcNAc(b1-3)Gal(b1-4)GlcNAc(b1-3)Gal(b1-4)GlcNAc(b1-2)Man(a1-3)[GlcNAc(b1-3)Gal(b1-4)GlcNAc(b1-3)Gal(b1-4)GlcNAc(b1-3)Gal(b1-4)GlcNAc(b1-2)Man(a1-6)]Man(b1-4)GlcNAc(b1-4)[Fuc(a1-6)]GlcNAc
Method in brief: as §1

[5] = target: GlcNAc(b1-3)Gal(b1-4)GlcNAc(b1-3)Gal(b1-4)GlcNAc(b1-3)Gal(b1-4)GlcNAc(b1-2)[GlcNAc(b1-3)Gal(b1-4)GlcNAc(b1-3)Gal(b1-4)GlcNAc(b1-3)Gal(b1-4)GlcNAc(b1-6)]Man(a1-6)[GlcNAc(b1-3)Gal(b1-4)GlcNAc(b1-3)Gal(b1-4)GlcNAc(b1-3)Gal(b1-4)GlcNAc(b1-2)Man(a1-3)]Man(b1-4)GlcNAc(b1-4)[Fuc(a1-6)]GlcNAc
Method in brief: as §1

[6] = target: GlcNAc(b1-3)Gal(b1-4)GlcNAc(b1-3)Gal(b1-4)GlcNAc(b1-3)Gal(b1-4)GlcNAc(b1-3)Gal(b1-4)GlcNAc(b1-2)Man(a1-3)[GlcNAc(b1-3)Gal(b1-4)GlcNAc(b1-3)Gal(b1-4)GlcNAc(b1-3)Gal(b1-4)GlcNAc(b1-3)Gal(b1-4)GlcNAc(b1-2)Man(a1-6)]Man(b1-4)GlcNAc(b1-4)GlcNAc
Method in brief: as §1

[7] = target: GlcNAc(b1-3)Gal(b1-4)GlcNAc(b1-3)Gal(b1-4)GlcNAc(b1-3)Gal(b1-4)GlcNAc(b1-3)Gal(b1-4)GlcNAc(b1-2)Man(a1-3)[GlcNAc(b1-3)Gal(b1-4)GlcNAc(b1-3)Gal(b1-4)GlcNAc(b1-3)Gal(b1-4)GlcNAc(b1-3)Gal(b1-4)GlcNAc(b1-2)Man(a1-6)]Man(b1-4)GlcNAc(b1-4)[Fuc(a1-6)]GlcNAc
Method in brief: as §1

[8] = target: GlcNAc(b1-3)Gal(b1-4)GlcNAc(b1-3)Gal(b1-4)GlcNAc(b1-3)Gal(b1-4)GlcNAc(b1-3)Gal(b1-4)GlcNAc(b1-2)[GlcNAc(b1-3)Gal(b1-4)GlcNAc(b1-3)Gal(b1-4)GlcNAc(b1-3)Gal(b1-4)GlcNAc(b1-3)Gal(b1-4)GlcNAc(b1-6)]Man(a1-6)[GlcNAc(b1-3)Gal(b1-4)GlcNAc(b1-3)Gal(b1-4)GlcNAc(b1-3)Gal(b1-4)GlcNAc(b1-3)Gal(b1-4)GlcNAc(b1-2)Man(a1-3)]Man(b1-4)GlcNAc(b1-4)[Fuc(a1-6)]GlcNAc
Method in brief: as §1

[9] = target: GlcNAc(b1-3)Gal(b1-4)GlcNAc(b1-3)Gal(b1-4)GlcNAc(b1-3)GalNAc
Method in brief: as §1

[10] = target: GlcNAc(b1-3)Gal(b1-4)GlcNAc(b1-3)GalNAc
Method in brief: as §1

[11] = target: GlcNAc(b1-3)Gal(b1-4)GlcNAc(b1-3)[GlcNAc(b1-3)Gal(b1-4)GlcNAc(b1-3)]GalNAc
Method in brief: as §1

[12] = target: GlcNAc(b1-3)Gal(b1-4)GlcNAc(b1-6)[Gal(b1-3)]GalNAc
Method in brief: as §1

[13] = target: GlcNAc(b1-3)Gal(b1-4)GlcNAc(b1-6)[GlcNAc(b1-3)Gal(b1-3)]GalNAc
Method in brief: as §1

[14] = target: GlcNAc(b1-3)Gal(b1-4)GlcNAc(b1-6)[GlcNAc(b1-3)]Gal(b1-4)GlcNAc
Method in brief: as §1

GlcNAc(b1-3)GalNAc = target: GlcNAc(b1-3)GalNAc
Method in brief: as §1

GlcNAc(b1-3)Man = target: GlcNAc(b1-3)Man
Method in brief: as §1

[15] = target: GlcNAc(b1-3)[GlcNAc(b1-4)][GlcNAc(b1-6)]GlcNAc
Method in brief: as §1

[16] = target: GlcNAc(b1-3)[GlcNAc(b1-6)]Gal(b1-4)GlcNAc
Method in brief: as §1

[17] = target: GlcNAc(b1-3)[GlcNAc(b1-6)]GalNAc
Method in brief: as §1

[18] = target: GlcNAc(b1-4)Gal(b1-4)GlcNAc
Method in brief: as §1

GlcNAc(b1-4)GlcNAc = target: GlcNAc(b1-4)GlcNAc
Method in brief: as §1

[19] = target: GlcNAc(b1-4)GlcNAc(b1-4)GlcNAc
Method in brief: as §1

[20] = target: GlcNAc(b1-4)GlcNAc(b1-4)GlcNAc(b1-4)GlcNAc(b1-4)GlcNAc
Method in brief: as §1

[21] = target: GlcNAc(b1-4)GlcNAc(b1-4)GlcNAc(b1-4)GlcNAc(b1-4)GlcNAc(b1-4)GlcNAc
Method in brief: as §1

[22] = target: GlcNAc(b1-4)[GlcNAc(b1-6)]GalNAc
Method in brief: as §1

[23] = target: GlcNAc(b1-6)Gal(b1-4)GlcNAc
Method in brief: as §1

GlcNAc(b1-6)GalNAc = target: GlcNAc(b1-6)GalNAc
Method in brief: as §1

[24] = target: GlcNAc6S(b1-3)Gal(b1-4)GlcNAc
Method in brief: as §1

Kdn(a2-3)Gal(b1-3)GalNAc = target: Kdn(a2-3)Gal(b1-3)GalNAc
Method in brief: as §1

Kdn(a2-3)Gal(b1-3)GlcNAc = target: Kdn(a2-3)Gal(b1-3)GlcNAc
Method in brief: as §1

Kdn(a2-3)Gal(b1-4)Glc = target: Kdn(a2-3)Gal(b1-4)Glc
Method in brief: as §1

Kdn(a2-3)Gal(b1-4)GlcNAc = target: Kdn(a2-3)Gal(b1-4)GlcNAc
Method in brief: as §1

[25] = target: Kdn(a2-3)Gal(b1-4)[Fuc(a1-3)]GlcNAc
Method in brief: as §1

Kdn(a2-6)Gal(b1-4)GlcNAc = target: Kdn(a2-6)Gal(b1-4)GlcNAc
Method in brief: as §1

[26] = target: Man(a1-2)Man(a1-2)Man(a1-3)Man
Method in brief: as §1

[27] = target: Man(a1-2)Man(a1-2)Man(a1-6)[Man(a1-3)]Man
Method in brief: as §1

Man(a1-2)Man(a1-3)Man = target: Man(a1-2)Man(a1-3)Man
Method in brief: as §1

[28] = target: Man(a1-2)Man(a1-3)[Man(a1-2)Man(a1-6)]Man
Method in brief: as §1

B1: LecRKVI.2 (protein)
chain: RTTTNFAFRGFNGNQSKIRIEGAAMIKPDGLLRLTDRKSNVTGTAFYHKPVRLLNRNSTNVTIRSFSTSFVFVIIPSSSSNKGFGFTFTLSPTPYRLNAGSAQYLGVFNKENNGDPRNHVFAVEFDTVQGSRDDNTDRIGNDIGLNYNSRTSDLQEPVVYYNNDDHNKKEDFQLESGNPIQALLEYDGATQMLNVTVYPARLGFKPTKPLISQHVPKLLEIVQEEMYVGFTASTGKGQSSAHYVMGWSFSSGGERPIADVLILSELPPPPPNKAKKEGLNS
[1]
  glycan array binding signal (z-score): -0.243
[2]
  glycan array binding signal (z-score): -0.352
[3]
  glycan array binding signal (z-score): -0.24
[4]
  glycan array binding signal (z-score): -0.127
[5]
  glycan array binding signal (z-score): -0.343
[6]
  glycan array binding signal (z-score): -0.26
[7]
  glycan array binding signal (z-score): -0.217
[8]
  glycan array binding signal (z-score): -0.293
[9]
  glycan array binding signal (z-score): -0.409
[10]
  glycan array binding signal (z-score): -0.317
[11]
  glycan array binding signal (z-score): -0.275
[12]
  glycan array binding signal (z-score): -0.285
[13]
  glycan array binding signal (z-score): -0.401
[14]
  glycan array binding signal (z-score): -0.464
GlcNAc(b1-3)GalNAc
  glycan array binding signal (z-score): -0.337
GlcNAc(b1-3)Man
  glycan array binding signal (z-score): -0.381
[15]
  glycan array binding signal (z-score): -0.429
[16]
  glycan array binding signal (z-score): -0.338
[17]
  glycan array binding signal (z-score): -0.399
[18]
  glycan array binding signal (z-score): -0.256
GlcNAc(b1-4)GlcNAc
  glycan array binding signal (z-score): -0.232
[19]
  glycan array binding signal (z-score): -0.408
[20]
  glycan array binding signal (z-score): -0.311
[21]
  glycan array binding signal (z-score): -0.345
[22]
  glycan array binding signal (z-score): -0.38
[23]
  glycan array binding signal (z-score): -0.104
GlcNAc(b1-6)GalNAc
  glycan array binding signal (z-score): -0.253
[24]
  glycan array binding signal (z-score): 2.01
Kdn(a2-3)Gal(b1-3)GalNAc
  glycan array binding signal (z-score): -0.27
Kdn(a2-3)Gal(b1-3)GlcNAc
  glycan array binding signal (z-score): -0.309
Kdn(a2-3)Gal(b1-4)Glc
  glycan array binding signal (z-score): -0.034
Kdn(a2-3)Gal(b1-4)GlcNAc
  glycan array binding signal (z-score): -0.49
[25]
  glycan array binding signal (z-score): -0.352
Kdn(a2-6)Gal(b1-4)GlcNAc
  glycan array binding signal (z-score): -0.147
[26]
  glycan array binding signal (z-score): -0.421
[27]
  glycan array binding signal (z-score): -0.309
Man(a1-2)Man(a1-3)Man
  glycan array binding signal (z-score): -0.401
[28]
  glycan array binding signal (z-score): -0.363
